The text below walks through data of US20060073146A1 (Genentech, published 2006).

Test [1] addresses T1, TACI (the 265 amino acid form of human TACI, hTACI (265)), expressed on transfected cells (human, UniProt O14836 1-258).
T1 sequence: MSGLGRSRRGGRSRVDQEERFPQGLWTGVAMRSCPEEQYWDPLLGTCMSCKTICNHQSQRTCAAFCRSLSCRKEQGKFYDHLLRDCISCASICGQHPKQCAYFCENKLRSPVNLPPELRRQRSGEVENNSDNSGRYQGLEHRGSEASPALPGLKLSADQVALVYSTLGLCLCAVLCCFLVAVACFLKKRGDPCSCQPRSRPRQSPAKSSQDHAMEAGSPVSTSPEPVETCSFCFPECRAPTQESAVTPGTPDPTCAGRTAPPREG
Nature of the test: expression cloning: cDNA pools in COS 7 cells, AP-TALL-1 conditioned medium, in situ AP staining. As to the method: To identify a receptor for TALL-1, a cDNA expression library was constructed in pRK5 vector (EP 307,247, published Mar. 15, 1989) using PolyA+ mRNA derived from the IM-9 cells [Flanagan et al., Cell, 63:185 (1990)]. Pools of ˜1000 cDNA clones (Miniprep DNA (Qiagen)) from the library were transfected (using Lipofectamine) into COS 7 cells (ATCC) in 6 well plates, which after 36-48 hours, were then incubated with AP-TALL-1 conditioned medium, washed, and stained for AP activity in situ. A positive pool was broken down to successively smaller size pools. After three rounds of screening, a single cDNA encoding an AP-TALL-1 binding activity was identified.

Test [2] has as its target T2, DcR3-IgG (IgG1-Fc fusion of the ECD of DcR3) (human, UniProt O95407 30-300, limits assumed).
T2 construct: extracellular domain; Control immunoadhesin; not shown: IgG1 Fc
T2 sequence (looked up): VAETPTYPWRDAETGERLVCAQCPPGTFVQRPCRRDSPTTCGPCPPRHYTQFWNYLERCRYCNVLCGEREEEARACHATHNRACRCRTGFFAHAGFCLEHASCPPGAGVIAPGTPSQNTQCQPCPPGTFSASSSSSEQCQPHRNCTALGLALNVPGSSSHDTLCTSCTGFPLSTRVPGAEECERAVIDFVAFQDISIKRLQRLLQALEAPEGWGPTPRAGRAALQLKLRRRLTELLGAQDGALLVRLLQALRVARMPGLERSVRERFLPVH
Description: co-immunoprecipitation (protein A or anti-Flag M2 agarose) and Western blot. On the procedure:
One μg of the purified human or Flag-LIGHT (control), Flag-APRIL, or Flag-TALL-1, or Flag-AP-APRIL, or Flag-AP-TALL-1 was incubated with 1 μg of purified human immunoadhesin containing the IgG1-Fc fusion of the ECD of DcR3 (control; Pitti et al., Nature, 396:699-703 (1998)) or TACI or BCMA overnight at 4° C. in duplicate. The TACI-ECD.hFc immunoadhesins were prepared by methods described in Ashkenazi et al., Proc. Natl. Acad. Sci., 88:10535-10539 (1991). The immunoadhesin constructs consisted of amino acids 2-166 of the human TACI polypeptide (see FIG. 1). The TACI-ECD constructs were expressed in CHO cells using a heterologous signal sequence (pre-pro trypsin amino acids 1-17 of pCMV-1 Flag (Sigma)) and encoding the human IgG1 Fc region downstream of the TACI sequence, and then purified by protein A affinity chromatography. The BCMA-ECD immunoadhesins were prepared by methods described in Ashkenazi et al., as cited above. […]
One set of reactions (FIG. 8; Panels A-C) was subjected to immunoprecipitation through the receptor-immunoadhesin with protein A-agarose (Repligen). […] The immunoprecipitates were then analyzed by Western blot with horseradish peroxidase-conjugated anti-Flag M2 mAb (Sigma) to detect the Flag-tagged ligands (FIGS. 8A-C) or horseradish peroxidase-conjugated goat anti-human IgG pAb (Amersham) to detect the receptor-immunoadhesins (FIGS. 8D-F).

B1: AP-TALL-1 (Example 1 construct: human placenta alkaline phosphatase fused to the N-terminus of TALL-1 […]) (ligand)
chain: not shown
notes: Cloned into pCMV-1 Flag and expressed in 293 cells; used as conditioned medium; not shown: human placenta alkaline phosphatase (AP), PCR-amplified from pAPtag-5 (Genehunter)
As to B1, the binding result in test [1] is given as “binds”.

B2: Flag-AP-TALL-1 (Example 2 construct, TALL-1 […]) (ligand)
chain: not shown
notes: not shown: Flag tag of the pCMV-1 Flag vector; human placental alkaline phosphatase
B2: the binding result in test [2] is on record as “no binding (tested: 1 µg of each)”.

B3: Flag-TALL-1 (ligand, not shown: small tags and cut ends)
chain: not shown
notes: also called Blys/TALL-1
For B3, the binding result in test [2] was “no binding (tested: 1 µg of each)”.
